Data on 25 molecules can be found in US8815869B2, “Lactam acetamides as calcium channel blockers” (AbbVie Inc., priority 2010, dated 2014).

The target of the assay is human Cav2.2 (Homo sapiens, UniProt Q00975). Nature of the assay: FLIPR assessment of calcium channel activity (Ca2+ influx, IMR32 cells). The assay is classed as cell-based. The settings on record: IMR32 cells endogenously expressing human Cav2.2; 60 minute pre-incubation; 2 μM nifedipine; depolarized with 80 mM KCl. On the procedure:
(i) In Vitro Methods—Assessment of Calcium Channel Activity Using FLIPR
The IMR32 cells were maintained in MEM media containing 10% (v/v) FBS, 1% (v/v) antibiotic/antimitotic, 1% (v/v) sodium pyruvate and 1% (v/v) MEM NEAA. Following dissociation in 0.05% (v/v) trypsin/EDTA, cells were seeded into black 1×96-well plates (Corning Cellbind) at a density of 1-1.2×10^5 cells/well and incubated in the maintenance media above for 48 hours at 37° C. Immediately prior to performing the assay the media was removed and cells were loaded for 1.5 hours with 1× Calcium 4 dye prepared in HBSS (137 mM NaCl, 5.4 mM KCl, 0.25 mM Na2HPO4, 0.44 mM KH2PO4, 1.3 mM CaCl2, 1 mM MgSO4, 4.2 mM NaHCO3) containing HEPES pH 7.4 at room temperature. After dye loading and a subsequent 60 minute pre-incubation with compounds (full log dilutions from 10 μM to 0.1 nM) in the presence of 1.3 mM CaCl2 and 2 μM nifedipine to block endogenous L-type channels, the external Ca^2+ concentration was increased to 5 mM CaCl2 and the cells concomitantly depolarized with 80 mM KCl to assay channel activity. To determine the IC50 values, the percent inhibition of the compound at each concentration was determined relative to the activity in the absence of inhibitor, and data was fitted using non-linear regression sigmoidal dose response curve analysis with GraphPad Prism®.
With `O=C(CN1CCC(c2ccc(Cl)cc2)(c2ccc(Cl)cc2)C1=O)N1CCNCC1` [Example 25, 3,3-Bis(4-chlorophenyl)-1-(2-oxo-2-piperazin-1-ylethyl)pyrrolidin-2-one], the IC50 (as a rule, the point on the concentration scale where inhibition reaches its midpoint) was 8.89 µM. As for `CN1CCN(C(=O)CN2CCCC(c3ccccc3)(c3ccccc3)C2=O)CC1` [Example 22, 1-[2-(4-Methylpiperazin-1-yl)-2-oxoethyl]-3,3-diphenylpiperidin-2-one], the IC50 was > 30 µM. Regarding `O=C(CN1CCC(c2ccc(F)cc2)(c2ccc(F)cc2)C1=O)N(C1CCCC1)C1CCNCC1` [Example 19, 2-[3,3-Bis(4-fluorophenyl)-2-oxopyrrolidin-1-yl]-N-cyclopentyl-N-piperidin-4-ylacetamide], the IC50 came to 4.3 µM.

Take `O=C(CN1CCC(c2ccc(F)cc2)(c2ccc(F)cc2)C1=O)NC1CNC1` [Example 16, N-Azetidin-3-yl-2-[3,3-bis(4-fluorophenyl)-2-oxopyrrolidin-1-yl]acetamide]: the IC50 was determined as 5.54 µM.

As for `O=C(CN1CCCC(c2ccccc2)(c2ccccc2)C1=O)N1CC2CNCC2C1` (stereo not shown) [Example 6, 1-(2-Hexahydropyrrolo[3,4-c]pyrrol-2(1H)-yl-2-oxoethyl)-3,3-diphenylpiperidin-2-one], the IC50 was > 30 µM. With `O=C(CN1CCCC(c2ccccc2)(c2ccccc2)C1=O)NC[C@H]1CCCN1` [Example 8, 2-(2-Oxo-3,3-diphenylpiperidin-1-yl)-N-[(2R)-pyrrolidin-2-ylmethyl]acetamide], the IC50 was > 9 µM. For `O=C(CN1CCCC(c2ccc(F)cc2)(c2ccc(F)cc2)C1=O)N1CCNCC1` [Example 23, 3,3-Bis(4-fluorophenyl)-1-(2-oxo-2-piperazin-1-ylethyl)piperidin-2-one], the 50% inhibitory concentration (IC50) came out at 2.96 µM. With `O=C(CN1CCCC(c2ccccc2)(c2ccccc2)C1=O)N1CC2(CCNCC2)C1` [Example 7, 1-[2-(2,7-Diazaspiro[3.5]non-2-yl)-2-oxoethyl]-3,3-diphenylpiperidin-2-one] the figure was > 30 µM; with `O=C(CN1CCCC(c2ccccc2)(c2ccccc2)C1=O)NC1CCNCC1` [Example 1, 2-(2-Oxo-3,3-diphenylpiperidin-1-yl)-N-(piperidin-4-yl)acetamide], > 30 µM; with `O=C(CN1CCC(c2ccc(F)cc2)(c2ccc(F)cc2)C1=O)N(C1CCC1)C1CCNCC1` [Example 18, 2-[3,3-Bis(4-fluorophenyl)-2-oxopyrrolidin-1-yl]-N-cyclobutyl-N-piperidin-4-ylacetamide], 5.06 µM. In the case of `O=C(CN1CCCC(c2ccccc2)(c2ccccc2)C1=O)N1CCC[C@H]2CNC[C@H]21` [Example 5, 1-{2-[(4aS,7aS)-Octahydro-1H-pyrrolo[3,4-b]pyridin-1-yl]-2-oxoethyl}-3,3-diphenylpiperidin-2-one], the IC50 was 13.5 µM. For the molecule `O=C(CN1CCCC(c2ccccc2)(c2ccccc2)C1=O)N1C[C@H]2CCCN[C@H]2C1` [Example 4, 1-{2-[(4aR,7aR)-Octahydro-6H-pyrrolo[3,4-b]pyridin-6-yl]-2-oxoethyl}-3,3-diphenylpiperidin-2-one], the IC50 was 11.8 µM.

Take `O=C(CN1CCC(c2ccc(F)cc2)(c2ccc(F)cc2)C1=O)N1CCNCC1` [Example 14, 3,3-Bis(4-fluorophenyl)-1-(2-oxo-2-piperazin-1-ylethyl)pyrrolidin-2-one]: the IC50 is 9.22 µM.

For `O=C(CN1CCCC(c2ccccc2)(c2ccccc2)C1=O)N1C[C@@H]2CN[C@@H](C2)C1` (relative stereo) [Example 13, 1-{2-[(1S*,5S*)-3,6-Diazabicyclo[3.2.1]oct-3-yl]-2-oxoethyl}-3,3-diphenylpiperidin-2-one], the IC50 turned out to be 9.78 µM. Regarding `O=C(CN1CCC(c2ccc(F)cc2)(c2ccc(F)cc2)C1=O)N1CCN2CCC[C@@H]2C1` [Example 15, 3,3-Bis(4-fluorophenyl)-1-{2-[(8aR)-hexahydropyrrolo[1,2-a]pyrazin-2(1H)-yl]-2-oxoethyl}pyrrolidin-2-one], the IC50 amounted to 12.9 µM.

As to `O=C(CN1CCCC(c2ccccc2)(c2ccccc2)C1=O)NC[C@@H]1CCCN1` [Example 9, 2-(2-Oxo-3,3-diphenylpiperidin-1-yl)-N-[(2S)-pyrrolidin-2-ylmethyl]acetamide], the IC50 was > 30 µM.

As to `O=C(CN1CCC(c2ccccc2)(c2ccccc2)C1=O)N1CCN(C2CCCCC2)CC1` [Example 21, 1-[2-(4-Cyclohexylpiperazin-1-yl)-2-oxoethyl]-3,3-diphenylpyrrolidin-2-one], the IC50 is 3.86 µM. Regarding `O=C(CN1CCC(c2ccccc2)(c2ccccc2)C1=O)N1CCNCC1` [Example 24, 1-(2-Oxo-2-piperazin-1-ylethyl)-3,3-diphenylpyrrolidin-2-one], the IC50 is 16.4 µM.

As to `O=C(CN1CCCC(c2ccccc2)(c2ccccc2)C1=O)NC1CNC1` [Example 11, N-Azetidin-3-yl-2-(2-oxo-3,3-diphenylpiperidin-1-yl)acetamide], the IC50 is > 30 µM. Consider `O=C(CN1CCC(c2ccc(F)cc2)(c2ccc(F)cc2)C1=O)N(C1CCNCC1)C1CC1` [Example 17, 2-[3,3-Bis(4-fluorophenyl)-2-oxopyrrolidin-1-yl]-N-cyclopropyl-N-piperidin-4-ylacetamide], for which the IC50 was 12.9 µM.

Regarding `O=C(CN1CCCC(c2ccccc2)(c2ccccc2)C1=O)N1CCNCC1` [Example 12, 1-(2-Oxo-2-piperazin-1-ylethyl)-3,3-diphenylpiperidin-2-one], the IC50 is 15 µM. Turning to `O=C1CN(C(=O)CN2CCCC(c3ccccc3)(c3ccccc3)C2=O)CCN1` [Example 10, 4-[(2-Oxo-3,3-diphenylpiperidin-1-yl)acetyl]piperazin-2-one], the IC50 was > 30 µM. With `O=C(CN1CCC(c2ccc(F)cc2)(c2ccc(F)cc2)C1=O)N1CC2(CCNCC2)C1` [Example 20, 1-[2-(2,7-Diazaspiro[3.5]non-2-yl)-2-oxoethyl]-3,3-bis(4-fluorophenyl)pyrrolidin-2-one], the IC50 is 13.1 µM. `CC1(C)C(=O)NCCN1C(=O)CN1CCCC(c2ccccc2)(c2ccccc2)C1=O` [Example 2, 3,3-Dimethyl-4-[(2-oxo-3,3-diphenylpiperidin-1-yl)acetyl]piperazin-2-one]: the IC50 was > 30 µM.

In the case of `O=C(CN1CCCC(c2ccccc2)(c2ccccc2)C1=O)N1C[C@@H]2CCCN[C@@H]2C1` [Example 3, 1-{2-[(4aS,7aS)-Octahydro-6H-pyrrolo[3,4-b]pyridin-6-yl]-2-oxoethyl}-3,3-diphenylpiperidin-2-one], the IC50 was 10.1 µM.
